According to the supplement of paper PMC11417369:
± gives the standard deviation of the averaged measurements. This is one part of the list.

test system: PfAP2-LT AP2 domain (GST-tagged); assay: gcPBM binding intensity (ln(normalized median fluorescence intensity)); higher = stronger DNA binding
How it was run: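 DNA-binding domains from P. falciparum, fused to GST and produced in E. coli, were put on an Agilent 4 × 180k double-stranded probe array for 1 h in 1× PBS holding 1% milk, 0.2 mg/ml BSA, 0.5% salmon testes DNA and 0.03% Triton X-100. Probes were primer-extended, 36 bp long and drawn from intergenic genomic regions, with negative controls included. After Alexa488 anti-GST antibody detection and a 488 nm scan, binding intensity was set as the highest Masliner-normalised natural-log median intensity across replicate spots of either probe orientation.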

Sequence | gcPBM binding intensity (ln)
AGAACGACTAAGCAGTGTACATTTTGTATATACAAT [XGTACX_site2831] | 9.13 ± 0.39
TTACATACATACAAGTGTACGCATATATTAATATTA [XGTACX_site4006] | 8.79 ± 0.35
ATATGTACAAGTTATACACACATGTACAGTTATATA [CACACA_site6706] | 9.2 ± 0.36
TTTAACATTTCAGATGTGCACATTTTCCGAACCAGT | 8.91 ± 0.38
ATAATGAAGACTTTTTTACACACTTCATATATTATA [CACACA_site8630] | 9.01 ± 0.4
TGATATTTTTCCATAGTGCAAAATATAGTAATGTAT | 8.62 ± 0.49
TAAATGTGTATATATTGTACAAATATTAATACATAC [XGTACX_site8102] | 8.86 ± 0.3
AAATTGTTAAAAAGAAGTACATTCTTTTATTTCTTA [XGTACX_site540] | 8.28 ± 0.42
AAAGAACTTAATGCTGCACACAAAAAAAAGGAAAAA [CACACA_site8375] | 9.12 ± 0.45
AGAAAAAAACGGTACAGTACACATAAACTAATTATT [XGTACX_site8617] | 9.09 ± 0.37
TATTATATATGGAAGTAATAATATATATATATATAT [GTGCAC_negctrl_site63] | 8.87 ± 0.17
TTTTTTGAAAATAAAAGTACAAATTTTATATTTAAA [XGTACX_site2758] | 8.15 ± 0.42
ACAAACTAAAAAAGAAGTACAAATCGTATTAATAAT [XGTACX_site8684] | 9.08 ± 0.4
CCAACATAGAGGGGCACACACATATATACATAAAAA [CACACA_site1847] | 9.31 ± 0.67
CTTATATGAAGCCTCTTTATTCATAAATAAGAATAA [TGCATGCA_negctrl_site120] | 8.21 ± 0.38
AGTATACATATATATACACACACATATATATATATA [CACACA_site7883] | 9.805 ± 0.064
AAACAACATGGACACGCACACACAAAAAAAGCATGC [CACACA_site73] | 9.71 ± 0.42
TTAACAAAATTTCCGTGTACGTAAATAAGAACATAG [XGTACX_site7200] | 8.71 ± 0.56
GATTAAATTTGACACTGTACAAAAAATAAAATGAGG [XGTACX_site504] | 8.79 ± 0.51
ATGAATATAAAATATACACACTTATATATTGAATGA [CACACA_site4274] | 8.8 ± 0.42
GTTAATTCATTAAGGACACACAAAAAAAAAAAAAAA [CACACA_site998] | 8.71 ± 0.53
TTTTTTTTTTTTCTGTGTACATATATAATATATATA [XGTACX_site1592] | 8.78 ± 0.37
ATATCTATATTTTAAAGTACGTAGTAAAAAGAAAAA [XGTACX_site4323] | 8.61 ± 0.47

Sequence | gcPBM binding intensity (ln)
TTTTATGAAAAGATGAGTACACAATACTTTTTAATT [XGTACX_site8253] | 8.46 ± 0.45
TTTTTTGTTAAACCGGTGCATATAAATATATATATA [GTGCAC_site9989] | 8.64 ± 0.33
TAATTATTACACGGTATTATATATAATATGTTAAAA [GTGCAC_negctrl_site134] | 8.49 ± 0.4
ATCATTTTTTATGCGTGTACATAAATTTATTAGGTT [XGTACX_site2786] | 9.01 ± 0.4
CACAAAAAAGTTCATACACACAACATATTTATATAT [CACACA_site2887] | 9.05 ± 0.42
TAACAAAACATAGATTGTACATATTATAAATGTATA [XGTACX_site1543] | 8.74 ± 0.41
GTTACATACCTATACACACACATATATAAATAAATA [CACACA_site6549] | 9.48 ± 0.35
ATATAAAAATACAGGTGTACATTTTTTCATATTTAT [XGTACX_site6959] | 8.77 ± 0.37
TATTCTTATCTTACCACACACAATGTACGAAAAGAT [CACACA_site6296] | 8.95 ± 0.33
CAAAATATACACACGTGTACACAAATATTTACAAAA [XGTACX_site2257] | 9.19 ± 0.34
CAATATTATATTACTTGTACACATATGTAGTTTCGA [XGTACX_site8945] | 8.86 ± 0.47
TTTCCCATAGGAAAAACACACATATATTATATATAA [CACACA_site1981] | 8.57 ± 0.4
TTGTCACTAATAGATGCATGCAATCATTCCATTTTT [TGCATGCA_site938] | 8.98 ± 0.35
TTATGTCGTAAATACACACATACATATACATACACA [CACACA_site1374] | 9.12 ± 0.28
TTGTAATGATATATTTGTACTTAATATAATTGTATA [XGTACX_site2748] | 8.61 ± 0.45
AATAAATTGAAACACACACACACATATATATATATA [CACACA_site848] | 10.17 ± 0.042
GAAGATTTATCTTGCACACGCAAAAAAAAAAAAAAA [CACACA_site154] | 8.78 ± 0.42
TTTATTGCTCTATATGCACACCTTAATTCTTCATTT [CACACA_site8682] | 9.09 ± 0.57
AAAAATAATCATAGTAGTACAAAAAAAAAAAAAAAA [XGTACX_site3736] | 8.63 ± 0.42
TACGTAAATTCTAATACACACTATAGGATATTCTGC [CACACA_site7248] | 8.86 ± 0.42
GAAAATATTTCTATCTGTACTTATTTATATATATAT [XGTACX_site7317] | 8.81 ± 0.47
ATGTACTATGATAATGCATGCAATAATACATTTTTA [TGCATGCA_site318] | 8.98 ± 0.37
TAATATATATATAATACACACTATTTTAATCACATA [CACACA_site4849] | 8.66 ± 0.46

Sequence | gcPBM binding intensity (ln)
TTATTATGTATATATGCACACAATACCCAAAACAAC [CACACA_site80] | 9.24 ± 0.35
TTTTTCAATTGTAGTGGTACAGATATAATTATCTCT [XGTACX_site5500] | 8.66 ± 0.53
TTCTATATATTATATGCATGTAAAACATATTAAAAT [TGCATGCA_site662] | 8.43 ± 0.35
TTTTTATGAAAATAAACACACGATTTATTATATATA [CACACA_site1311] | 8.46 ± 0.43
TGCATGTAATTTTTGTGTCCACATAAAATATTTAAT [XGTACX_site5652] | 8.65 ± 0.28
ACATGTATTTATAAGAGTACATATGTGTGCATGTTT [XGTACX_site7946] | 9.21 ± 0.33
TTTTATCGATATATCTGTACATATTACTTATAATAA [XGTACX_site57] | 8.79 ± 0.43
TTTATATATTATATAAATATTATTATACTTTAAATA [TGCATGCA_negctrl_site236] | 8.07 ± 0.52
TTAATTTATTTATGCACACATATATAATTACACATA [CACACA_site4544] | 8.99 ± 0.37
TATAACTATTTATAATGTACTCATGTATAATTATAT [XGTACX_site7913] | 8.66 ± 0.42
TGCTATAATTTATATACACACAAATATATACTCATA [CACACA_site6111] | 8.86 ± 0.35
ATGCTTTTGTCATGTGCACACACGTATATATTATAT [CACACA_site4163] | 9.64 ± 0.35
TCGAACATTAACATAACACACATATATATATATATA [CACACA_site2900] | 9.88 ± 0.099
AAGGTTATTTATATATGTACTTAATATATATATATG [XGTACX_site886] | 8.81 ± 0.35
TTTATAATATACATAACACACAATTATTATTTCTTA [CACACA_site3624] | 8.55 ± 0.5
TTATAACAAATATAGAGTACTAAAATTTTACGTTAT [XGTACX_site1410] | 8.61 ± 0.45
TTTTTTTCCTTATCTATATATAATCAAATTTTCTAC [CACACA_negctrl_site867] | 8.48 ± 0.52
AACTTTTAGAAGAACACACACATATAGATTATGACC [CACACA_site6256] | 9.24 ± 0.33
TTAGCAACTATTACTACACACATTTGTATATAATTT [CACACA_site1591] | 9.05 ± 0.49
TTTTTTTTTTCTTGTTGTACTTTTAATAATTCATAT [XGTACX_site4704] | 8.7 ± 0.42
TTATTAAAAAAAATATGTACTCACAATATAATATAT [XGTACX_site3738] | 8.45 ± 0.47
GAAATTTTTAAAAAGGTGCTTTTAACAAAAATTATT [GTGCAC_site9687] | 8.31 ± 0.35
TATATATATATAACATGTACATAAAATACATTTATA [XGTACX_site7370] | 8.67 ± 0.31

Sequence | gcPBM binding intensity (ln)
ACCATCCTTAATACTTATTTTTTCACAATTAAGTAA [GTGCAC_negctrl_site269] | 8.62 ± 0.43
AAAAAAAAAAAAAATGCATGTGCGTAAATAATAATA [TGCATGCA_site793] | 8.81 ± 0.48
AGTATTTTAATTTCAGTGCATTTTATTCTATAATTA | 8.71 ± 0.38
AAGTTTTCTTACAGATGTACTTTTTAAAAATAAACT [XGTACX_site6632] | 8.66 ± 0.4
TTTAGGAAAGGCGGCACACATTTATATATTTATTTA [CACACA_site5931] | 8.81 ± 0.4
ATATATATCTATATTTGTACATATTACATTCAAGTT [XGTACX_site1749] | 8.94 ± 0.37
AAAAAAAAAAAAAGATGTACATATATTTTTATTATA [XGTACX_site654] | 8.44 ± 0.54
AAGGATATAAAAAAACGTACGTACGATAATATAATT [XGTACX_site1292] | 9.09 ± 0.45
AACCATTCTTCTAATTGTACATTGAAAAATCATGAT [XGTACX_site3854] | 8.56 ± 0.35
AAAATATATATGTATGTTTATATGTTTATATATATT [XGTACX_negctrl_site337] | 8.71 ± 0.41
AAAAAAAAATTTAAGTGTACATTCCATTTTAGTTTA [XGTACX_site5286] | 8.43 ± 0.44
TCTAAGTATAAAGACACACAGAATAAAAAAAAATAT [CACACA_site2367] | 8.94 ± 0.55
TATTTAATATATTTATGTACATATTTATTTATTATT [XGTACX_site524] | 8.88 ± 0.51
AAGAAGCATAAATGTACACACATATTTATATATCAA [CACACA_site6743] | 9.07 ± 0.53
TATTTTTCTTTATTGGTACACACGAAAAAAAAATTG [CACACA_site3054] | 8.53 ± 0.47
AAAATCCAGTTTTCAAAATTGAACAAAAAAAAAATA [GTGCAC_negctrl_site542] | 8.49 ± 0.49
ATATATTTTTTAAACACACACATAAATATTTGTGTA [CACACA_site2879] | 9.16 ± 0.35
AAAGGATATGGACACACACACACATATATATATATA [CACACA_site8686] | 10.5 ± 0.15
CAACACTTATTGAAACGTACGCATATAGTTTCTTTT [XGTACX_site8960] | 8.84 ± 0.37
TTTATTTATATTTATACACACAAACATAATACTACT [CACACA_site7039] | 8.96 ± 0.42
